# In the supplement of paper PMC11417369:
# The list shows a part of the results.
# System: PfSIP2 AP2 domain 1 (GST-tagged)
# Assay: gcPBM binding intensity (ln(normalized median fluorescence intensity)); higher = stronger DNA binding
# Method in brief: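 In this array assay, P. falciparum DNA-binding domains with a GST tag, expressed in E. coli, were applied for 1 h to primer-extended double-stranded 36-bp intergenic genomic probes and negative controls on an Agilent 4 × 180k array. Bound protein was visualised with Alexa488 anti-GST antibody at 488 nm. Binding intensity is the highest Masliner-normalised natural-log median intensity across replicate spots of either probe orientation.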
row,Sequence,gcPBM binding intensity (ln)
1,TTTTACTATACTTATGCACACAAGATATATACATAT [CACACA_site2968],7.36
2,TATTAAAAGGTGAGTACACACATATATGTGTATATA [CACACA_site7070],6.93
3,ATATATATATATATATGTACACAGGACAATAATCCT [XGTACX_site6383],9.34
4,ATCATGAAATATATTTGTACACATAATAATATAATA [XGTACX_site8798],7.18
5,ATTTGGCAGAAACACACACACACACCCACCCACATA [CACACA_site589],7.01
6,TTTTTTTTTATAAATACACACGTACGGGTGCATAAC [CACACA_site8444],11.3
7,TATATATATATAACAACACACACAGATCATAAAACT [CACACA_site8670],9.26
8,TATTTTTTTTCGTAATGTACATAAAAAATGCAAAAA [XGTACX_site8491],7.6
9,ATTATATAATTTAATCGTACACAAATATTTGTTAGT [XGTACX_site5913],7.18
10,CCATAATTATATGCCAGTACATATTTGTAACAAAAA [XGTACX_site851],7.19
11,TTTATTTTTCATTGGGGTACACAAGTTTATTTTATT [XGTACX_site4263],7.57
12,TAAGTAATAGTTTGTGCACACTCAAGTATATCATAT [CACACA_site4035],9.42
13,TATTATTCCATGTGAAGTACAGAAATATAAATAAAT [XGTACX_site5106],7.25
14,CTTTTAAAAAAATTCATGCACACGAAATAAAAAGCA [CACACA_site929],7.69
15,CAAAATATTTTTATAACACACATATATAGAATGTGC [CACACA_site1145],6.83
16,TATCATCTTAATATCGTGCACATTTATAGAACGAAA [GTGCAC_site9992],10
17,TTTTACTATACTTATGCACACAAGATAAATACATAT [CACACA_site5619],7.7
18,ATACCTCAAATTGATACACACAAAAAAAGTAAATTA [CACACA_site3134],7.18
19,CTATTTTAATATTTTACACACCATGTAAAATATATA [CACACA_site5732],6.99
20,TTTTTATTCGTTAAATGTACAAAAAAAATGTTATAT [XGTACX_site2804],7.24
21,ATACACTAGAAAATTTTATAGTATTATTAATGTTAA [GTGCAC_negctrl_site101],6.85
22,GCTTAGTTATATAACTGTACTATTTTTATTTATATG [XGTACX_site884],7.14

row,Sequence,gcPBM binding intensity (ln)
1,ATAAAGTAAGAAGAAATAATGATTTTCATGGAAAAC [XGTACX_negctrl_site322],6.54
2,AATAAGATAAGGAAAAGTACTTATAATTAAACTAAT [XGTACX_site1850],7.11
3,CTCATAGTTGGGTGCACACAAAAAATTAAAAAAATA [CACACA_site3032],12.3
4,AAATACATACATTAATGTACAAATAGAAACACTCTT [XGTACX_site1512],6.84
5,AAATATAAGTAAATAAATAAATATATAAATATATAA [TGCATGCA_negctrl_site441],6.64
6,CTTATACAAAAAAAAAGTACATAACATAATAAGAAT [XGTACX_site6782],7.17
7,ACAGATGATCAAAATTGTACAGAGTTATATTATATT [XGTACX_site4642],6.9
8,TTATTTAAAAATAGCACACATTATATATATATATAT [CACACA_site5556],9.01
9,GATAAACCATATATAACACACATATGAATATTGCAA [CACACA_site6735],7.07
10,ATATCATATATAAGTCGTACGATGAATAGAATTTTT [XGTACX_site7586],6.97
11,CACCCATACAGACATACACACACATATATATTAATA [CACACA_site8077],7.36
12,CACAAACAGACAAACACACACACACGGACATACATA [CACACA_site6350],7.19
13,GTATATATGTTTTATACACACATTAAAGGAAATATA [CACACA_site984],7.03
14,TATAATATATAAAAATGTACACATAAATATAAGTAG [XGTACX_site665],7.12
15,ACATGCAAGAAGAAATGTACTTAACATCTATATAGA [XGTACX_site7338],6.89
16,ACTAAATAAATAAATATAATATATAAATATGTATGT [TGCATGCA_negctrl_site583],6.89
17,AAAATTAATTTATTTACACACAATATTAAAATATTT [CACACA_site7512],6.87
18,TTTTATACATATTTTACACACTAAAATATACAGATA [CACACA_site4333],7.16
19,TTACATATTCATAAAAGTACATAATTATAAAAGGTA [XGTACX_site906],7.31
20,AATCAAAAAGGAACCATAATATTACAACTATATATA [CACACA_negctrl_site381],6.72
21,TAAAACTTAATGTTTTGTACATATTCTTCTTTATTT [XGTACX_site4271],6.79
22,GCCATAAAGATATATACACACATAAAAAAAAGTTAT [CACACA_site6674],7.17

row,Sequence,gcPBM binding intensity (ln)
1,AAAAAAAAAATTAAATGTACATATATAATATATATA [XGTACX_site7245],7.46
2,TTAACAAAGAAACACACACACACACCCAAAAAAAAA [CACACA_site516],6.96
3,ATTATTATAGATAAAACACACAATTTTGTTTTCACA [CACACA_site7792],6.8
4,AAACAATTATTATATTGTACATATATTACATTATTA [XGTACX_site1089],6.82
5,TTATATTTTATTATGTGTACGTATATAATATAATAT [XGTACX_site6230],7.46
6,ATATGTATATAATAAGAACACACATATATTTAATTT [CACACA_site8961],6.85
7,ATAAAAATATATGAAACACACAGTTTCTATAAGAAA [CACACA_site4156],6.78
8,GTTATTAAATAATTCACACACATATATAAATAAATA [CACACA_site7129],7.1
9,TACAATATAATTTAATGTACATGTGAATATATATAT [XGTACX_site4675],8.58
10,TAATATACTATAAATACACACAAGTGTACATACTTC [CACACA_site983],7.07
11,TTAAAAAGAGGTGACACACACATATAAATCTAAATC [CACACA_site3738],6.66
12,TATTAAAAGGTGAGTACACACATATCTGAGTATATA [CACACA_site5192],7.04
13,TTGTGCTAAACAAAAAAAAATATATATAAAAAAATA [XGTACX_negctrl_site388],7.34
14,CATCCACATAGATGTACACACATATATATATATATA [CACACA_site5616],9.5
15,ATATGTATATTTTTGATGTGCTTTTATTTGGTTATT [CACACA_negctrl_site626],6.83
16,CTTCATAAAAATTGCACACATATAATAATGTACATA [CACACA_site2212],7.44
17,AAAAAAAATACATACACACACACACGCACATATATA [CACACA_site7645],7.23
18,ATTTTTTTATAATCAACCCATTTCCTACATTTTTAT [CACACA_negctrl_site1237],6.96
19,ATATCTCAACATATCACACATATATATATATAATAT [CACACA_site5018],7.35
20,AATAAATATAAATAAATAAATATATATATATATTTG [CACACA_negctrl_site1486],6.98
21,AATTAAACTTTGTTTTTGTTTTTTTTTTTTATATTT [CACACA_negctrl_site1316],6.76
22,ATATATATAAATATATGTACATAAATATATTTGTAA [XGTACX_site6715],7.46

row,Sequence,gcPBM binding intensity (ln)
1,TGGTGATATACGAAATGTACGCAAATCACAAAATAA [XGTACX_site8836],7.01
2,TCTTTAACAAGTTAAACACACATACCTATATACATA [CACACA_site7237],6.98
3,AAATAAAAATTAAAAAAATAGAAACGAATTGAATGC [TGCATGCA_negctrl_site365],7.2
4,CGCGTATAACGAAATTGTACAAAAAAAATTAAACAT [XGTACX_site6813],6.86
5,AATTTTGAGATGTGGTGTACACAAAATTAGTTAGAC [XGTACX_site7033],7.53
6,TCAACGATCACTCGGTGTACTATAAATGAGAGAATT [XGTACX_site1820],6.74
7,ATTAAATTAAAATAATGTACTTAATACTTTTGCTTA [XGTACX_site8404],6.77
8,AACAATTTTTAAAGGTGTACAATATGTATATAAGAA [XGTACX_site254],7.36
9,ATATATATATATAAAGGTACACATTTATTAAATATA [XGTACX_site7102],9.39
10,TAATATATATAACATATACACACGTTCATATATATA [CACACA_site462],6.92
11,TATTTGCAATATTATACACACATTAGATATTGCAAA [CACACA_site7565],7.14
12,AACAAATTAATTCTAGTGCAGGACGTATTTGTGTAC [GTGCAC_site9907],7.36
13,AAAAAAAAAAAAAAATGTACATATATAATATTTATA [XGTACX_site5117],7.32
14,TACAAAATGTTATATCAATATAGATAAAAAAATGAA [XGTACX_negctrl_site285],7.29
15,TTTTTATTTTTTGAAACACACACAAAAAAAATGATA [CACACA_site8564],7.01
16,AAACAAATATATATATGTACTTATAAAAAAAAAAAT [XGTACX_site2211],7.12
17,TAAGGATATATATATTCACACACACCGGGAAATATA [CACACA_site8020],6.81
18,CATTTTTTGCTTTCAACACACATACAATATATATAA [CACACA_site6127],7.26
19,AAGGATCACGCACAAACACACATATTTATATTTATA [CACACA_site6405],6.98
20,CTTTATTTTTTATACACACACAATATGTATATATAT [CACACA_site3550],7.59
21,TATATATGGAAAAGAGTCAAAAAGAAAAAAGAAAAA [CACACA_negctrl_site1374],6.94
22,TATGAAATATTTATACACAGAACTTCATAATTTTCA [TGCATGCA_negctrl_site509],6.79
